Source: PubChem BioAssay AID588591 (National Center for Advancing Translational Sciences (NCATS), 2011)
In all, about 390,000 compounds went through this assay and about 4,700 (1.2%) were called active. Inconclusive means that the source gave no clear call. Such entries were picked first, then a sample of the others. Calls follow the shape of the dose curve; as a rule, active = well fitted inhibition curve with a large enough effect; inconclusive = small, poorly fitted or top-dose-only effect, or another doubt; inactive = no such curve, though single readings can be large or run the other way. Potencies beside an inconclusive call are fits to weak or partial responses and may not hold up.

The compounds below were run against DNA polymerase eta (Homo sapiens) (UniProt Q9Y253) (assay: qHTS for Inhibitors of Polymerase Eta). Settings: recombinant Pol eta, fluorescent DNA replication assay; series mostly up to 114 µM; activity change, negative = inhibition: at the top concentration.
Sequence of UniProt Q9Y253 (Q9Y253 whole entry, looked up): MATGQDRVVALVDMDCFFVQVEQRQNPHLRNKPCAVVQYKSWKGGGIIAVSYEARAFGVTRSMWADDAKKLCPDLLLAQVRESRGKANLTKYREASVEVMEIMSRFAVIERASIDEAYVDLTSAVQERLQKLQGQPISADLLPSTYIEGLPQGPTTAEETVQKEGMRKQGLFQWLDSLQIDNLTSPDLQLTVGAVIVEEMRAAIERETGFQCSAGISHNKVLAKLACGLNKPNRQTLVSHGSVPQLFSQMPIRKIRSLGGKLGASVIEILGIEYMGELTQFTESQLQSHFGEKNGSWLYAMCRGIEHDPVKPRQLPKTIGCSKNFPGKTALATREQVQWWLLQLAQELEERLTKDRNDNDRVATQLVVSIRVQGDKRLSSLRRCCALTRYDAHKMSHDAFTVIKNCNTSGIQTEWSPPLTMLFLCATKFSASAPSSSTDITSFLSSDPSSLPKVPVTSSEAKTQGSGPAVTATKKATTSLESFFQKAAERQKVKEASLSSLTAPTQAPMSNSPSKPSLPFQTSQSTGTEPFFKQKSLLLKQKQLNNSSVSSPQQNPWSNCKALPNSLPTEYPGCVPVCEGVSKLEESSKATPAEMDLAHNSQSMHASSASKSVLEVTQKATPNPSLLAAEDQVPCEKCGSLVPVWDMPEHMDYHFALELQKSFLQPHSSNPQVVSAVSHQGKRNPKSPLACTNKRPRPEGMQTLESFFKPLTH
Method in brief: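 Pol eta at 10 nM preincubated with compounds 15 min at room temperature; reaction started with fluorescent substrate (50 nM final) and read kinetically at 0 and 10 min.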
% is scaled to controls: 0 for no effect and ±100 for the full control effect; potency is read from the fitted curve at half-maximal effect; tags tell the direction and shape of the fitted curve.

Row | SMILES | Potency | activity change, negative = inhibition
1 | O=C(Nc1ccc(N2C(=O)C3C4C=CC(C4)C3C2=O)cc1Cl)c1cccs1 (stereo unspecified) | inconclusive: 89.1 µM [inhibitor, partial curve] | –
2 | COc1cc(/C=C/C(=O)OC(C)C(=O)Nc2ccc(Cl)cn2)ccc1OC(F)F (stereo unspecified) | inconclusive: 28.2 µM [inhibitor, partial curve, poor fit] | –
3 | COC1C(O)C(O)C(O)C(O)C1O (stereo unspecified) | inconclusive: 39.8 µM [inhibitor, partial curve, poor fit] | –
4 | Cn1nc([N+](=O)[O-])c2c(-c3nc4ccccc4s3)c(N)n(C3CCCCC3)c2c1=O | inconclusive: 3.98 µM [inhibitor, full curve, poor fit] | –
5 | CCCOc1ccc(C(=O)OCCN(CC)CC)cc1N | inconclusive: 89.1 µM [inhibitor, partial curve, poor fit] | –
6 | C=CCN1C(=O)C(O)(CC(=O)c2ccc(OC)cc2OC)c2cc(Br)ccc21 (stereo unspecified) | inconclusive: 89.1 µM [inhibitor, partial curve, poor fit] | –
7 | Cc1ccc(/C=C2\SC(=S)N(C3CCS(=O)(=O)C3)C2=O)o1 (stereo unspecified) | active: 25.1 µM | –
8 | COc1cccc(NC(=O)CSC2=Nc3ccccc3C3=NC(CCC(=O)NCCc4ccccc4)C(=O)N23)c1 (stereo unspecified) | – | inactive: 0.147%
9 | O=[N+]([O-])c1cccc2ncccc12 | inconclusive: 89.1 µM [inhibitor, partial curve] | –
10 | O=C(CCNS(=O)(=O)c1ccc(OC(F)(F)F)cc1)N1CCN(C/C=C/c2ccccc2)CC1 | inconclusive: 79.4 µM [inhibitor, partial curve, poor fit] | –
11 | O=C(CN(CCO)c1ccccc1)NC12CC3CC(CC(C3)C1)C2 | inconclusive: 89.1 µM [inhibitor, partial curve, poor fit] | –
12 | CCOC(=O)CCN(c1ccccc1)S(=O)(=O)c1cc(-c2cc(C)no2)ccc1C | – | inactive: -21.8%
13 | O=C1CCCC(=NNC(=O)c2cc3ccccc3cc2O)C1 | – | inactive: -14.7%
14 | CCOc1ccc2c(c1)c(N=Nc1cccc(C(=O)O)c1)c(O)n2C | inconclusive: 31.6 µM [inhibitor, partial curve, poor fit] | –
15 | COc1ccc(C2CC(c3cccs3)=NN2C(=O)CCl)cc1OC (stereo unspecified) | inconclusive: 56.2 µM [inhibitor, partial curve, poor fit] | –
16 | CCOC(=O)N1CCc2c(sc(NC(=O)Cc3ccccc3)c2C(=O)c2ccc(OC)cc2)C1 | inconclusive: 89.1 µM [inhibitor, partial curve, poor fit] | –
17 | CC1(OC(=O)C2CCCC2)C(=O)C=C2C=C(c3ccc(C#N)cc3)OC=C2C1=O (stereo unspecified) | active: 20 µM | –
18 | O=C(Nc1ccc2oc(=O)ccc2c1)c1cc2ccccc2o1 | inconclusive: 20 µM [inhibitor, partial curve, poor fit] | –
19 | Nc1nc(-c2ccccc2)c(CCCOc2ccc(NC(=O)CBr)cc2)c(=O)[nH]1 | inconclusive: 12.6 µM [inhibitor, partial curve, poor fit] | –
20 | O=C(N/N=C/c1cn(Cc2cccc(F)c2)c2ccccc12)c1cc(O)cc(O)c1 | active: 1.58 µM | –
21 | O=C(CSc1nc(-c2ccc(F)cc2)nc2c1Cc1ccccc1O2)Nc1cccc(C(=O)O)c1 | active: 10 µM | –

Row | SMILES | Potency | activity change, negative = inhibition
22 | CCCCNC1=CC(=O)C(NCCCC)=CC1=O | – | inactive: -25.6%
23 | CCOc1ccc(N=C2Sc3nc4ccc(C)cc4cc3CN2CCOC)cc1 | inconclusive: 89.1 µM [inhibitor, partial curve, poor fit] | –
24 | CCn1c(CNC(=O)C(C)(C)C)nc2ccccc21 | inconclusive: 39.8 µM [inhibitor, single point] | –
25 | CCN(C(=O)CSc1nc2cc(S(=O)(=O)N(CC)CC)ccc2o1)C1CCS(=O)(=O)C1 (stereo unspecified) | – | inactive: -20.4%
26 | CCOc1ccc(NC(=O)N2CCC(n3nnc4ccccc43)CC2)cc1 | inconclusive: 100 µM [inhibitor, single point] | –
27 | CCOc1ccc2nc(N3C(=O)C(O)=C(C(=O)c4ccco4)C3c3ccco3)sc2c1 (stereo unspecified) | inconclusive: 39.8 µM [inhibitor, partial curve] | –
28 | COc1ccc(N/C=C2\C(=O)CCc3c2oc2cc(Cl)c(O)c(Cl)c32)cc1 | inconclusive: 15.8 µM [inhibitor, full curve] | –
29 | O=C(Nc1ccc(C(=O)O)cc1)/C(=C\c1ccco1)NC(=O)c1ccc(Br)cc1 | – | inactive: -2.01%
30 | COc1ccc(CSC2=C(C#N)C(=O)NC3(CCCCC3)S2)cc1 | – | inactive: -15.3%
31 | Cc1cc(N(C)Cc2ccccc2)n2nc(-c3ccc(C(C)(C)C)cc3)nc2n1 | inconclusive: 20 µM [inhibitor, partial curve, poor fit] | –
32 | O=C(O)c1ccc(N/N=C/c2cccc3nccnc23)cc1 | inconclusive: 56.2 µM [inhibitor, partial curve, poor fit] | –
33 | Cc1ccc(S(=O)(=O)Nc2ccccc2C(=O)Nc2ccc(S(=O)(=O)Nc3nccc(C)n3)cc2)cc1 | inconclusive: 31.6 µM [inhibitor, partial curve, poor fit] | –
34 | O=C(Nc1sc2c(c1C(=O)O)CCCCC2)c1ccccc1 | – | inactive: -6.01%
35 | Cc1c(NC2=C(Cl)C(=O)N(c3ccccc3Cl)C2=O)c(=O)n(-c2ccccc2)n1C | inconclusive: 15.8 µM [inhibitor, partial curve, poor fit] | –
36 | Cc1nnc(N2C(=O)C(O)=C(C(=O)c3ccco3)C2c2ccc(C(C)C)cc2)s1 (stereo unspecified) | inconclusive: 12.6 µM [inhibitor, partial curve, poor fit] | –
37 | COc1ccc(C(=O)c2nccc3cc(OC)c(OC)cc23)cc1OC | inconclusive: 63.1 µM [inhibitor, partial curve, poor fit] | –
38 | COc1ccc(C(=O)OCC(=O)Nc2ncc([N+](=O)[O-])s2)cc1OC | active: 3.16 µM | –
39 | O=C(COC(=O)C1=COCCO1)Nc1ncc(Cl)cc1Cl | inconclusive: 17.8 µM [inhibitor, full curve] | –
40 | CCc1ccccc1OCC(=O)NC1CCCC1 | inconclusive: 25.1 µM [inhibitor, partial curve, poor fit] | –
41 | COc1ccc(-c2cc(C(=O)N3CC(C)CC(C)C3)c3ccccc3n2)cc1 (stereo unspecified) | inconclusive: 89.1 µM [inhibitor, partial curve, poor fit] | –
